This is an account of results in publication PMC10575725.

Protein sequences, listed by entry. Tags and fused reporters are not part of them.
UniProt Q96P20: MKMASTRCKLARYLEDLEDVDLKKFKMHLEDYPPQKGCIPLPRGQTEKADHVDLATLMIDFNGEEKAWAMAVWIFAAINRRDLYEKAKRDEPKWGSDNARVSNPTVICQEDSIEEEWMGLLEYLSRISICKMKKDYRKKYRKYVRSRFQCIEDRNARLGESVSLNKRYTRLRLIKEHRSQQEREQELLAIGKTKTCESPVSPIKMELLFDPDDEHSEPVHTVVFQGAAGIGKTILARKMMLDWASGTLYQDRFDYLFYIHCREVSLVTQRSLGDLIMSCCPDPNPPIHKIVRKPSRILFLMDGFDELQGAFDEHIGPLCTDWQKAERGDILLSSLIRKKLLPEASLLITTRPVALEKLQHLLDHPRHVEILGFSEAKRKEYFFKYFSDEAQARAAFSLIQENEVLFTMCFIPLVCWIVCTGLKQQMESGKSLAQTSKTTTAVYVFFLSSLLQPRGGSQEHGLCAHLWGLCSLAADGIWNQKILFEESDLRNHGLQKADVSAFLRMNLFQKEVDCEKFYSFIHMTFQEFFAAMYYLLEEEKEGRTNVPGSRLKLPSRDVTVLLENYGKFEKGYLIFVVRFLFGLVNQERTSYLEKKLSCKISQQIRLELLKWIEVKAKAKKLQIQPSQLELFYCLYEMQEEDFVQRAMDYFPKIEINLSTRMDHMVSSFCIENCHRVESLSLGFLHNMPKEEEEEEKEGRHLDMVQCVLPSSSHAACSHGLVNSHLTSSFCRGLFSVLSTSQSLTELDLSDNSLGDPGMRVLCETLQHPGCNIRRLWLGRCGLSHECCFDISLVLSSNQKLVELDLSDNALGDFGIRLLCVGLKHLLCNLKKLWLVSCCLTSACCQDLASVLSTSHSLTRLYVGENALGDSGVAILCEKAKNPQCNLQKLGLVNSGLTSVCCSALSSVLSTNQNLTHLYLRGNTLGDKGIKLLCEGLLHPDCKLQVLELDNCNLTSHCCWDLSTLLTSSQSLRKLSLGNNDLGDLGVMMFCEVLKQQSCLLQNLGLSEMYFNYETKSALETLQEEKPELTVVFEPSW
UniProt Q8R4B8: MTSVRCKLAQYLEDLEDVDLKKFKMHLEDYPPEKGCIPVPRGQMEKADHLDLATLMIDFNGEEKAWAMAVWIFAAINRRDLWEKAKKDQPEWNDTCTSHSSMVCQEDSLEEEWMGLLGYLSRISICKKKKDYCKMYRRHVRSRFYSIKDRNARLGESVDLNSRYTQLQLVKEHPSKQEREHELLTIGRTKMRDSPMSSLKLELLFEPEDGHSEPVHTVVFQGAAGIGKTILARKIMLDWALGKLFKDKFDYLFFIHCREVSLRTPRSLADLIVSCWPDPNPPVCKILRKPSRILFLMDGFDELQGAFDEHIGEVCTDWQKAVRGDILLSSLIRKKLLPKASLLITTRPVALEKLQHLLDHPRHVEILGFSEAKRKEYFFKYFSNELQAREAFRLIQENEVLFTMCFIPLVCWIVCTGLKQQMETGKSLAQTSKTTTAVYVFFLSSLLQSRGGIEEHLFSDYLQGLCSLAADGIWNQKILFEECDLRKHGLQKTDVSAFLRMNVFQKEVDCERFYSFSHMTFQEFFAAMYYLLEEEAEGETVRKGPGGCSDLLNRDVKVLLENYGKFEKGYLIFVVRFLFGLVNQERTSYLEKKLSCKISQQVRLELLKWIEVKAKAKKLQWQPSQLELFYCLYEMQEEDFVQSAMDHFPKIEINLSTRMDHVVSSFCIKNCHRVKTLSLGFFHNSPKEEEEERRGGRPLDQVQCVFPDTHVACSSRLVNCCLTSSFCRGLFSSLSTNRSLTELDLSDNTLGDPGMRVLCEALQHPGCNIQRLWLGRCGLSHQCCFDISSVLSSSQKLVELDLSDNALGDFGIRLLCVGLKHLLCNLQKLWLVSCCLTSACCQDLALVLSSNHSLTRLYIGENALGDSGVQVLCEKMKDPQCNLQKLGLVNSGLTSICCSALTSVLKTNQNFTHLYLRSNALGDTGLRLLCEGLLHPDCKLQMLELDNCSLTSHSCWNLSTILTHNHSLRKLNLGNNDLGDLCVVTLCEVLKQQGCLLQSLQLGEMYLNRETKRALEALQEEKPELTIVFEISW

Test [1] addresses Myc-tagged human NLRP3 (human) (UniProt Q96P20). As to the kind of experiment: co-IP; HEK293T cells transfected with the indicated plasmids; IP buffer 1.0% NP-40, 50 mM Tris-HCl pH 7.4, 50 mM EDTA, 150 mM NaCl; protein G agarose with specific antibodies overnight.
Test [2] concerns the target Myc-NLRP3, obtained by in vitro transcription and translation (not stated (human or mouse cDNA cloned)) (UniProt Q96P20). As to the kind of experiment: co-IP; in vitro binding assay: in vitro transcribed and translated Myc-NLRP3 and Flag-HERC5 mixed, co-IP with Myc antibody, immunoblot with Flag or Myc antibody.
Test [3] has as its target Myc-tagged mouse NLRP3 (mouse) (UniProt Q8R4B8). As to the kind of experiment: co-IP; HEK293T cells transfected with the indicated plasmids; IP buffer 1.0% NP-40, 50 mM Tris-HCl pH 7.4, 50 mM EDTA, 150 mM NaCl; protein G agarose with specific antibodies overnight.
For test [4], the target named is NLRP3 (NOD-, LRR-, and pyrin domain-containing protein 3), endogenous, mouse peritoneal macrophages (mouse (endogenous in peritoneal macrophages)) (UniProt Q8R4B8). Nature of the test: co-IP; endogenous proteins in mouse peritoneal macrophages, LPS-stimulated or LPS-primed and ATP-activated; IP buffer 1.0% NP-40, 50 mM Tris-HCl pH 7.4, 50 mM EDTA, 150 mM NaCl.

Results are given in words; binding and its absence hold for the method and conditions named. Binding seen in cells or lysates may run through a third protein. Some results given as binding are weak or reduced against the parent protein; the word gives no strength. For some assays here: Sequences can lack the tags named with a protein.

B1: FLAG-tagged human HERC6 (enzyme, UniProt Q8IVU3 1-1022)
chain: MYFCWGADSRELQRRRTAGSPGAELLQAASGERHSLLLLTNHRVLSCGDNSRGQLGRRGAQRGELPEPIQALETLIVDLVSCGKEHSLAVCHKGRVFAWGAGSEGQLGIGEFKEISFTPKKIMTLNDIKIIQVSCGHYHSLALSKDSQVFSWGKNSHGQLGLGKEFPSQASPQRVRSLEGIPLAQVAAGGAHSFALSLCGTSFGWGSNSAGQLALSGRNVPVQSNKPLSVGALKNLGVVYISCGDAHTAVLTQDGKVFTFGDNRSGQLGYSPTPEKRGPQLVERIDGLVSQIDCGSYHTLAYVHTTGQVVSFGHGPSDTSKPTHPEALTENFDISCLISAEDFVDVQVKHIFAGTYANFVTTHQDTSSTRAPGKTLPEISRISQSMAEKWIAVKRRSTEHEMAKSEIRMIFSSPACLTASFLKKRGTGETTSIDVDLEMARDTFKKLTKKEWISSMITTCLEDDLLRALPCHSPHQEALSVFLLLPECPVMHDSKNWKNLVVPFAKAVCEMSKQSLQVLKKCWAFLQESSLNPLIQMLKAAIISQLLHQTKTEQDHCNVKALLGMMKELHKVNKANCRLPENTFNINELSNLLNFYIDRGRQLFRDNHLIPAETPSPVIFSDFPFIFNSLSKIKLLQADSHIKMQMSEKKAYMLMHETILQKKDEFPPSPRFILRVRRSRLVKDALRQLSQAEATDFCKVLVVEFINEICPESGGVSSEFFHCMFEEMTKPEYGMFMYPEMGSCMWFPAKPKPEKKRYFLFGMLCGLSLFNLNVANLPFPLALYKKLLDQKPSLEDLKELSPRLGKSLQEVLDDAADDIGDALCIRFSIHWDQNDVDLIPNGISIPVDQTNKRDYVSKYIDYIFNVSVKAVYEEFQRGFYRVCEKEILRHFYPEELMTAIIGNTDYDWKQFEQNSKYEQGYQKSHPTIQLFWKAFHKLTLDEKKKFLFFLTGRDRLHARGIQKMEIVFRCPETFSERDHPTSITCHNILSLPKYSTMERMEEALQVAINNNRGFVSPMLTQS
As for B1, the binding entry in test [1] was “no binding”.

B2: FLAG-tagged human HERC5 (enzyme, UniProt Q9UII4 1-1024)
chain: MERRSRRKSRRNGRSTAGKAAATQPAKSPGAQLWLFPSAAGLHRALLRRVEVTRQLCCSPGRLAVLERGGAGVQVHQLLAGSGGARTPKCIKLGKNMKIHSVDQGAEHMLILSSDGKPFEYDNYSMKHLRFESILQEKKIIQITCGDYHSLALSKGGELFAWGQNLHGQLGVGRKFPSTTTPQIVEHLAGVPLAQISAGEAHSMALSMSGNIYSWGKNECGQLGLGHTESKDDPSLIEGLDNQKVEFVACGGSHSALLTQDGLLFTFGAGKHGQLGHNSTQNELRPCLVAELVGYRVTQIACGRWHTLAYVSDLGKVFSFGSGKDGQLGNGGTRDQLMPLPVKVSSSEELKLESHTSEKELIMIAGGNQSILLWIKKENSYVNLKRTIPTLNEGTVKRWIADVETKRWQSTKREIQEIFSSPACLTGSFLRKRRTTEMMPVYLDLNKARNIFKELTQKDWITNMITTCLKDNLLKRLPFHSPPQEALEIFFLLPECPMMHISNNWESLVVPFAKVVCKMSDQSSLVLEEYWATLQESTFSKLVQMFKTAVICQLDYWDESAEENGNVQALLEMLKKLHRVNQVKCQLPESIFQVDELLHRLNFFVEVCRRYLWKMTVDASENVQCCVIFSHFPFIFNNLSKIKLLHTDTLLKIESKKHKAYLRSAAIEEERESEFALRPTFDLTVRRNHLIEDVLNQLSQFENEDLRKELWVSFSGEIGYDLGGVKKEFFYCLFAEMIQPEYGMFMYPEGASCMWFPVKPKFEKKRYFFFGVLCGLSLFNCNVANLPFPLALFKKLLDQMPSLEDLKELSPDLGKNLQTLLDDEGDNFEEVFYIHFNVHWDRNDTNLIPNGSSITVNQTNKRDYVSKYINYIFNDSVKAVYEEFRRGFYKMCDEDIIKLFHPEELKDVIVGNTDYDWKTFEKNARYEPGYNSSHPTIVMFWKAFHKLTLEEKKKFLVFLTGTDRLQMKDLNNMKITFCCPESWNERDPIRALTCFSVLFLPKYSTMETVEEALQEAINNNRGFG
In the case of B2, the binding entry in test [1] was “binds”.

B3: Flag-HERC5, obtained by in vitro transcription and translation (enzyme, UniProt Q9UII4 1-1024)
chain: B2 chain
For the molecule B3, the binding entry in test [2] is recorded as “binds”.

B4: Flag-tagged mouse HERC6 (enzyme, UniProt F2Z461 1-1003)
chain: MYFSWAAGSRKPRRLKAGTSGIELLQAASGEHHSLLLFSNHRVYSCGDNSWGQLGQRRDQSTERPEPIQALNDLHVDLVSCGKEHSVAVCHKGKVFAWGAGSEGQLGIGEFKEISFMPTKIKALAGIKIIQVSCGHYHSLALSEDGHVFSWGRNSEGQLGLGKNSRSQAIPQKVKSLEGIPLAQVAAGGTHSFALSLTGTSFGWGSNRSGQLALSGNKVKEQIYKPHSIGALKNLSVIYISCGYEHTAVLTEEGQVFTFGGNSSGQLQPSPRSGQRGPQLIEGIGGRVSQIECASYHTIAYVYTTGQVVSLGRGPSHTSNPTHQEAPAENSDITCLLAAEDLVDIEVKDIFAGAHANFVTTRRVSHTRSTGVSMKILPEIIRINQSLVKKWRAANKRKDREGAKREISLIFSSSACLTASFLKKRDAGENNLIDVDLKLARDVFKKLTTEKWISSLITTCLEEYLLRDLPYSSPHQEALLVFLLLPECSIMQDPKNWKTLAFEFAKAIHKMGPQSLAFLRTCWASLEVSSLNILVQMLKKAIISQIQYGVATEQYITNIKVLLEVIKEVHKANCQLPESAFIINELSGIFNFDAEAGRMFIRHNDLDCTESSDMVVFSDFLFVFDLPSKIKLMKCDSFVKLMSEVMAFPEKMSSPPYLILKVRRSHLVEDTLRQLRQVEDFDLRKQLSVGFINEIRPEAGGVSSEFFHCIFEEMTDPKYEMFIYPEKGSSMWFPVNPKFEKSSYFLFGILCGLSLHNLKVINLPFPLALYKKLLNQKPSLEDLKELSLPLGRNLQEVLNCEAGDIEELHMYFSIYWDQKDVDLIPDGISVPVNETNKRDYVSKYVDYIFNISIKTIYEEFHRGFYKVCNWDIIRQFQPEELMTAIIGNATCDWKQFENNSKYKDGYDKSHPTILLFWKAFHDLTLDEKKKFLLFLTGCDRLHVKGLQNEGIVFRCSETFSEEDNPRSLTCHRMLDLPKYSSMRRMKEALQVAINNSTGFVSQE
Turning to B4, the binding result in test [3] is on record as “binds”.

B5: HERC6 (HECT domain- and RCC1-like domain-containing protein 6), endogenous, mouse peritoneal macrophages (enzyme, UniProt F2Z461 1-1003)
chain: B4 chain
B5: the binding result in test [4] is recorded as “binds”.
